According to the RNAGym collection of RNA variant scans (doi:10.1073/pnas.2313332121):
Variants at the background level are over-represented here.

B1: TPR 5TU (parent)
chain: GGAUCUUCUCGAUCUAACAAAAAAGACAAAUCUGCCACAAAGCUUGAGAGCAUCUUCGGAUGCAGAGGCGGCAGCCUUCGGUGGCGCGAUAGCGCCAACGUUCUCAACUAUGACACGCAAAACGCGUGCUCCGUUGAAUGGAGUUUAUCAUG

Variants of: B1
Test: polymerase ribozyme fitness, log enrichment relative to wild type (log ratio); higher = more active; in vitro selection for triplet polymerase activity
In short: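 One round of in vitro selection, in triplicate, was applied to PCR-built, transcribed mutant libraries of each subunit of a heterodimeric triplet polymerase ribozyme. The steps were annealing with a biotinylated primer, partner subunit and triplets, incubation frozen at −7 °C, gel excision of extended constructs, streptavidin-bead capture and RT-PCR. Fitness is the logarithm, base 2, of genotype enrichment over wild-type enrichment from inverse-variance-weighted replicate averages of Illumina-sequenced inputs and outputs, keeping genotypes with ≥10 input reads and ≥1 read per output.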

Going from GGAUCUUCUCGAUCAACCAAAAUAGACAAAUCUGCCACAAAGCUUGAGAGCAUCAUCGGAUGCAGAGGCGGCAGCCUUCGGUGACGCGAUAACACCAACGUGCUCAACUAUGACAGGCAAAACGCGUGCUCCGUUGAAUGGAGUUUAUCAUG [U15A A17C A23U U55A G84A G92A G94A U102G C116G] to GGAUCUUCUCGAUUUAACAAAAAAGACAAAUCUGCCACAAAGCUUGAGAGCAUCUUCGGAUGCAGAGGCGGCAGCCUUCGGUGGCGUGAUAGCGCCAACGUCCUCAACUAUGACACGCAAAACGCGUGCUCCGUUGAAUGGAGUUUAUCAUG [C14U C87U U102C], the “polymerase ribozyme fitness (log ratio)” value rises from no more than -4.2 to -4.18.

First: GGAUCUUCUCGAUCAAACAAAAAAGACAAAUCUGCCACACAGCUUGAGAGCAUCUUCGGAUGCAGAGGCGGCAGCCUUCGGUGGCGCGAUAGCGCCAACGUUCUCAACUAUGACACGCAAAACGCGUGCUCCGUUGAAUGGAGUUUAUCAUG [U15A A40C]
Second: GGAUCUUCUCGAUCAUACAAAAAAGACAAACCUGCCACAAAACUUGAGAGCAUCUUCGGAUGCAGAGGCGGCAGCCUUCGGUGGCGGGAUAGCGCCGUCGUUCUCAACUAUGACACGCAAAACGCGUGCUCCGUUGAAUGGAGUUUAUCAUG [U15A A16U U31C G42A C87G A97G A98U]
The “polymerase ribozyme fitness (log ratio)” value of the first is higher: 0.538 for the first, no more than -4.2 for the second.

GGAUCUUCUCGAUCAAACAAAAAAGACAAAUCUGCCACAAAGCUUGAGUGCAUCUUCGGAUGCAGAGGCGGCGGCCUUCGGGGGCGCGAUAGCGCCAACGUUCUCAUCUAUGACACGCAAAACGCGUGCUCCGUUGAAUGGAGUUUAUCAUG [U15A A49U A73G U82G A107U] and GGAUCUUCUCGAUCAAACAAAAAAGACAAAUCUGCCUCAAAGCUUGAGAGCAUCUUCGGAUGCAGAGGCGGCAGCCUUCGGUGGCGCGAUAGCCCCAACGUUCUCAACUAUGACACGCAAAACGCGUGCUCCGUUGCAUGCAGUUUAUCAUG [U15A A37U G94C A137C G141C] cannot be ordered by “polymerase ribozyme fitness (log ratio)” value: no more than -4.2 for the first, no more than -4.2 for the second.

GGAUCUUCUCGAUCAAACAAAAAGUACAAAUAUGCCACAAAGCUUGAGAGCAUCUACGCAUGCAGAGGCGGCAGCCUUCGGGGGCGCGAUAGCGCCAACGUUGUCAACUAUGACACGCAAAACGCGUGCUCCGUUGAAUGGAGUUUAUCAUG [U15A A24G G25U C32A U56A G59C U82G C103G] and GGAUCUUCUCGAUUUAACAAAAAAGACAAAUCUGCCACAAAGCUUGAGAGCAUCUUCAGAUGUAGCGGCGGCAGCCUUCGGUGGCGCGAUAGCGCAAACGUUCUCAAUUAUGACACGCAAAACGCGUGCUCCGUUGAAUGGAGUUUAUCAUG [C14U G58A C63U A66C C96A C108U] cannot be ordered by “polymerase ribozyme fitness (log ratio)” value: no more than -4.2 for the first, no more than -4.2 for the second.

GGAUCUUCUCGAUUUAACAAAAAAGACAAAUCUGCCACAAAGCUUGAGAGCAUCUUCGGAUGCAGAGGCCGCAGCAUUCGGUGGGGCGAUAGCGCCAACGUUCUCAACUAUGACACGCAAAACGCCUGCUCCGUUGAAUAGAGUUUAUCAUG [C14U G70C C76A C85G G126C G140A] and GGAUCUUCUCGAUUUAACAAAAAAGACAAAACUGCCACAAAGCUUGAGAGCAUCUUCGGAUGCCGAGGCGGCAGACUUCGGUGGCGCGAUAGGGCCAACGUUUUCAACUAUGACACGCAAAACGCGUGCUCCGUUGAAUGGAGUUUAUCAUG [C14U U31A A64C C75A C93G C103U] cannot be ordered by “polymerase ribozyme fitness (log ratio)” value: no more than -4.2 for the first, no more than -4.2 for the second.

GGAUCUUCUCGAUUUAACAAAAAAGACAAAUCUGCCACAAAGCUUGAGACCAUCUUCGGAUGCAGAGGCGGCAGGCUUCGGUGGCGCGAUAGCGCCAACGUUCUCAACUAUGACACGCAAAACGCGUGCUCCGUUGAAUGGAGUUUAUCAUG [C14U G50C C75G] and GGAUCUUCUCGAUCAAACACAAAAGACAAAUCUGCCACAAAGCUUGAGAGCAUCUUCGGAUGCAGAGGCGGCAGCCUUCGGUGGCGGGAUAGCGCCAACGUUCUCAACUAUGACACGCAAAACCCGUGCUCCGUUGAAUGGAGUUUAUCAUG [U15A A20C C87G G124C] cannot be ordered by “polymerase ribozyme fitness (log ratio)” value: no more than -4.2 for the first, no more than -4.2 for the second.

GGAUCUUCUCGAUUUAACAAAAAAGACAAAUCUGCCACAAAGCUUGAGAGCAUCUUCGGAUGCAGAGGCGGCAGCCUUCGGUGGCGCGAUAGCGCCAACGUUCUCAACUAUGAAACGCAAAACGCGUGCUCCGUUGAAUGGAGUUUAUGAUG [C14U C114A C149G] and GGAUCUUCUCGAUUUAACAAAAAAGACAAAUCUGCCACAAAGCUUGAGACCAUCUUCGGAUGCAGAGGCGGCACCCUUCGGUGGCGCGAUAGUGCCAACGUUCUCAACUAUGACUUGCAAAACGCGUGCUCCGUUGAAUGGAGUUUAUCAAG [C14U G50C G74C C93U A115U C116U U151A] cannot be ordered by “polymerase ribozyme fitness (log ratio)” value: no more than -4.2 for the first, no more than -4.2 for the second.

Going from GGAUCUUCUCGAUUUAACAAAAAAGACAAAUCUGCCACAAAGCUUGAGAGCAUCUUCGAAUGCAGAGGCGGCAGCCUUCGGUGGUGCGAUAGCGCCAACGUUCUCAACUAUGACACGCAAAACGCGUGCUCCGAUGAAUGGAGUUUAUCAUG [C14U G59A C85U U134A] to GGAUCUUCUCGAUUUAACAAAAAAGACAAAUCUGCCACAAAGCUUGAGAGCACCUUCGGAUGCAGAGGCGGCAGCCUUCGGUGGGGCGAGAGCGCGAACGUUCUCAACUAUGACACGCAAAACUCGUGCUCUGUUGAAUGGAGUUUAUCAUG [C14U U53C C85G U90G C96G G124U C132U], the “polymerase ribozyme fitness (log ratio)” value falls from -4.12 to no more than -4.2.

Going from GGAUCUUCUCGAUCAAACAAAAAAGACAAAUCUGCCACUAAGCUUGAGAGCAUCUUCGGAUGCAGAGGCGGCAGCCUUCGGUGGCGCGAUAGCGCUAACGUUCUCAACUAUGAAACGCAAAGUGAGUGCUCCGUUGAAUGGAGUUUAUCAUG [U15A A39U C96U C114A A122G C123U C125A] to GGAUCUUCUCGAUUUAACAAAAAAGACAAAUCUGCCACAAAGCUUGAGAGCAGCUUCGGAUGCAGAGGCGGCAGCCUUCGGUGGCGCGAUAGCGCCGACGUUCUCAACUAUGACACGCAAAAGGCGUGCUCCGUUGAAUGGAGUUUAUCAUG [C14U U53G A97G C123G], the “polymerase ribozyme fitness (log ratio)” value falls from -4.11 to no more than -4.2.

With GGAUCUUCUCGAUUUAACAAAAAAGACAAAUCUGCCACAAAGCUUGAGAGCAUCUUCGGAUGCAGAGGCGGCAGCCUUCGGUGGCGCGAUAGCGCCAACGUUGUCAACUAUGACACGCAAAACGCGUGCUCCGUUGAAUGGAGUUUAUAAUG [C14U C103G C149A] the “polymerase ribozyme fitness (log ratio)” value was no more than -4.2.
